Experimental data as given in PubChem BioAssay AID1477 (National Center for Advancing Translational Sciences (NCATS), 2009).
The campaign covered roughly 230,000 compounds. Fewer than 10 were called active. Inconclusive results, whose numbers are uncertain, are shown with a selection of clear calls. Calls come from the whole dose curve; as a rule, active = well fitted curve in the direction sought with a large enough effect; inconclusive = small, poorly fitted or top-dose-only effect, or effect the other way, or another doubt; inactive = no such curve, though single readings can be large or run the other way. Potencies of inconclusive entries are left out as doubtful fits.

Each molecule was assayed against Runt-related transcription factor 1 (Homo sapiens) + Core-binding factor subunit beta (Homo sapiens) (UniProt Q01196+Q13951) (assay: qHTS Assay for Compounds Blocking the Interaction Between CBF-beta and RUNX1 for the Treatment of Acute Myeloid Leukemia). Details: AlphaScreen CBFb-His/RUNX1-biotin binding, biochemical; activity, negative = inhibition: at 59.8 µM (top of the series) unless noted.
Sequence of UniProt Q01196 (Q01196 whole entry, looked up): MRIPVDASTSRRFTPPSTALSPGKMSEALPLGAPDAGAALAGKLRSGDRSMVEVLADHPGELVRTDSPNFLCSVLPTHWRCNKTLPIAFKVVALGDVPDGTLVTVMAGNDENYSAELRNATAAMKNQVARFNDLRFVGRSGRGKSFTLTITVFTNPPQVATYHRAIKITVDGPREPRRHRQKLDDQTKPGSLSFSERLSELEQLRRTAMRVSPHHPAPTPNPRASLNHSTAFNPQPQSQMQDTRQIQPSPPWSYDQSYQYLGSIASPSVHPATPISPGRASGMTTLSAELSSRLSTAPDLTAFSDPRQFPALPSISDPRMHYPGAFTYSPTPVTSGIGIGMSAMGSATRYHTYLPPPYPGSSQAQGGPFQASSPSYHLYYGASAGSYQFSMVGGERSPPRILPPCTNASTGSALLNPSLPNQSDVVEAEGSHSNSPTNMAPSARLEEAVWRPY
Sequence of UniProt Q01196 (Q13951 whole entry, looked up): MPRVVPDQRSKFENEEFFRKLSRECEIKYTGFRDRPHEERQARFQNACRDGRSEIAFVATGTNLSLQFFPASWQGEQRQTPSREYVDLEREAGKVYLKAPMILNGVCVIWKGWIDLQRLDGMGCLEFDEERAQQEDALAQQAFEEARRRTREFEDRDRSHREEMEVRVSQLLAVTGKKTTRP
Outline: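 Proteins preincubated together for 20 min at RT before compound addition; 15 min later, nickel and streptavidin beads were added and left 90 min prior to AlphaScreen measurement.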
Throughout, for activity, negative = inhibition: % of control where 0% means no effect.

Row | SMILES | activity, negative = inhibition | Potency
1 | c1ccc2c(SCc3cn4ccccc4n3)nncc2c1 | inactive: 5.27% | 
2 | COc1ccc(C(=O)NC(=S)Nc2ccc(Cc3ccncc3)cc2)cc1 |  | inconclusive [inhibitor, single point]
3 | N#C/C(=C\c1ccccc1)C(=O)Nc1cc(S(=O)(=O)N2CCOCC2)ccc1N1CCCC1 | inactive: -3.12% | 
4 | O=C1NN(c2ccc(F)cc2)C(=O)/C1=C/c1cccs1 | inactive: 2.8% | 
5 | COc1cc(/C=C\c2ccc(OC)cc2OC)cc(OC)c1 |  | inconclusive [activator, single point]
6 | CC(C)[C@]12O[C@H]1[C@@H]1O[C@]13[C@]1(O[C@H]1C[C@H]1C4=C(CC[C@@]13C)C(=O)OC4)[C@@H]2O |  | inconclusive [activator, partial curve, poor fit]
7 | CSc1ccccc1NC(=O)COC(=O)c1ccccc1Cc1ccccc1 |  | inconclusive [activator, partial curve]
8 | Nc1c(C(=O)NCc2ccco2)c2nc3ccccc3nc2n1CCc1ccccc1F |  | inconclusive [activator, single point]
9 | COc1ccc(-n2ccnc2CN2CCCC(CO)(Cc3cccc(OC)c3)C2)cc1 (centres undefined) | inactive: -11% | 
10 | Cc1cc(N/C(=N\S(=O)(=O)c2ccc(Cl)cc2)c2ccc(F)cc2)no1 |  | inconclusive [inhibitor, single point]
11 | CCOc1ccc2nc(NCCCNS(=O)(=O)c3ccccc3)c(C#N)cc2c1 |  | inconclusive [activator, partial curve]
12 | O=C(NCc1ccco1)c1ccc(Cl)c(S(=O)(=O)N2CCOCC2)c1 |  | inconclusive [inhibitor, single point]
13 | Cc1c(C(=O)NC(=S)Nc2ccccc2N2CCCC2)cccc1[N+](=O)[O-] |  | inconclusive [inhibitor, single point]
14 | N#Cc1c(N2CCCC2)ccc(Br)c1Cl |  | inconclusive [activator, partial curve]
15 | COCCCn1c(SCc2cccc(OC)c2)nc2cc(OC)c(OC)cc2c1=N | inactive: -7.59% | 
16 | CCOc1ccc2[nH]c(=O)c(CN(CC3COCCO3)C(=O)C3CC3)cc2c1 (centres undefined) |  | inconclusive [inhibitor, single point]
17 | COc1ccc(CC(=O)NNc2ncnc3c2cnn3-c2ccc(C)cc2)cc1OC | inactive: 0.317% | 
18 | O=C(c1ccc(Sc2cccc(Cl)c2)c([N+](=O)[O-])c1)N1CCN(c2ccccn2)CC1 |  | inconclusive [inhibitor, partial curve]
19 | O=C(NCCCCc1ccccc1)C1CC(c2cccc(F)c2)=NO1 (centres undefined) |  | inconclusive [activator, partial curve, poor fit]
